Laboratory results published in PubChem BioAssay (NCATS).
Several values for one entry are separate records, joined by “and”; a condition that tells them apart may be missing. Equal values may be shown once. The shares of active, inactive and inconclusive entries below differ from those in the screen. For some of these results: Where the call is inconclusive, the potency comes from a doubtful curve fit. Activity calls are given as the source filed them. Calls come from the whole dose curve; as a rule, active = well fitted curve in the direction sought with a large enough effect; inconclusive = small, poorly fitted or top-dose-only effect, or another doubt; inactive = no such curve, though single readings can be large; an effect the other way counts as inactive or inconclusive.

Legend:
[1] = Primary qHTS for inhibitors of nuclear receptor binding SET domain protein 2 (NSD2) in an isogenic RCH-ACV NSD2 p.E1099K mutant (9B) (AID 1645876); note: nearly all actives have a fitted effect of over 70% in size
CRL-7250 = normal cell line; experiment: Cytotoxic Profiling of Annotated Libraries Using Quantitative High-Throughput Screening (AID 1296008); conditions: Five cell lines viability, CellTiter-Glo ATP luminescence, 48-72 h; max response: hits give low values; note: nearly all actives have a fitted effect of over 60% in size
Summary of the method: (§1)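 Cytotoxicity was measured as CellTiter-Glo ATP luminescence, read after 10 min at room temperature. Compound treatment of the cells lasted 48 or 72 hr at 37 degrees Celsius in a qHTS format.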

HEK293 = experiment: as above; conditions: Five cell lines viability, CellTiter-Glo ATP luminescence, 48-72 h; max response: hits give low values
Summary of the method: as §1

HaCat = experiment: as above; conditions: Five cell lines viability, CellTiter-Glo ATP luminescence, 48-72 h; max response: hits give low values
Summary of the method: as §1

CASKI = experiment: Primary qHTS to identify gynecologic anti-cancer compounds using libraries of approved drugs and bioactive compounds (AID 1345084); conditions: Gynecologic cancer cell panel viability, ATPlite luminescence, 48 h; activity change, negative = cytotoxicity: at 57.5 µM (top of the series); note: nearly all actives have a fitted effect of over 55% in size; for activity change, negative = cytotoxicity: % is set by controls: 0 for no effect and ±100 for the full control effect
Summary of the method: (§2)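 Luminescence from the ATPlite ATP-monitoring reagent indicates viable cell number; lower signal means cytotoxicity. Cells received compound 16 h after seeding and were exposed for 48 h across five concentrations.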

PA-1 = experiment: as above; conditions: Gynecologic cancer cell panel viability, ATPlite luminescence, 48 h; series mostly up to 57.5 µM
Summary of the method: as §2

Tov-21-G = experiment: as above; conditions: Gynecologic cancer cell panel viability, ATPlite luminescence, 48 h; activity change, negative = cytotoxicity: at 57.5 µM (top of the series)
Summary of the method: as §2

[2] = P-glycoprotein substrates identified in KB-8-5-11 adenocarcinoma cell line, qHTS therapeutic library screen (AID 1346987); note: nearly all actives have a fitted effect of over 65% in size
Summary of the method: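 In this qHTS, P-gp-rich KB-8-5-11 cells received library compounds across a concentration range. Viability was quantified by luminescence after 72 h at 37 degree C.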

KB-3-1 = experiment: Cytotoxic Profiling of Annotated Libraries Using Quantitative High-Throughput Screening (AID 1296008); conditions: Five cell lines viability, CellTiter-Glo ATP luminescence, 48-72 h; max response: hits give low values; note: nearly all actives have a fitted effect of over 60% in size
Summary of the method: as §1

NIH3T3 = experiment: as above; conditions: Five cell lines viability, CellTiter-Glo ATP luminescence, 48-72 h; max response: hits give low values
Summary of the method: as §1

OV90 = experiment: Primary qHTS to identify gynecologic anti-cancer compounds using libraries of approved drugs and bioactive compounds (AID 1345084); conditions: Gynecologic cancer cell panel viability, ATPlite luminescence, 48 h; series mostly up to 57.5 µM; note: nearly all actives have a fitted effect of over 55% in size; for activity change, negative = cytotoxicity: % is set by controls: 0 for no effect and ±100 for the full control effect
Summary of the method: as §2

SKOV3 = experiment: as above; conditions: Gynecologic cancer cell panel viability, ATPlite luminescence, 48 h; series mostly up to 57.5 µM
Summary of the method: as §2

Es-2 = experiment: as above; conditions: Gynecologic cancer cell panel viability, ATPlite luminescence, 48 h; series mostly up to 57.5 µM
Summary of the method: as §2

Hek293T = experiment: as above; conditions: Gynecologic cancer cell panel viability, ATPlite luminescence, 48 h, control line for the selectivity index; series mostly up to 57.5 µM
Summary of the method: as §2

Tov112D = experiment: as above; conditions: Gynecologic cancer cell panel viability, ATPlite luminescence, 48 h; activity change, negative = cytotoxicity: at 57.5 µM (top of the series)
Summary of the method: as §2

CAOV3 = experiment: as above; conditions: Gynecologic cancer cell panel viability, ATPlite luminescence, 48 h; series mostly up to 57.5 µM
Summary of the method: as §2

[3] = Primary qHTS for inhibitors of nuclear receptor binding SET domain protein 2 (NSD2) in an RCH-ACV wild type WT cells (2C) (AID 1645877); conditions: activity change, negative = cell killing: at 44.9 µM (top of the series); note: nearly all actives have a fitted effect of over 70% in size; for activity change, negative = cell killing: % is set by controls: 0 for no effect and ±100 for the full control effect
JEG-3 = experiment: Primary qHTS to identify gynecologic anti-cancer compounds using libraries of approved drugs and bioactive compounds (AID 1345084); conditions: Gynecologic cancer cell panel viability, ATPlite luminescence, 48 h; series mostly up to 57.5 µM; note: nearly all actives have a fitted effect of over 55% in size; for activity change, negative = cytotoxicity: % is set by controls: 0 for no effect and ±100 for the full control effect
Summary of the method: as §2

C33A = experiment: as above; conditions: Gynecologic cancer cell panel viability, ATPlite luminescence, 48 h; series mostly up to 57.5 µM
Summary of the method: as §2
Potency is the fitted concentration of half-maximal effect; tags give direction and shape of the fitted curve.

CC(=O)O[C@@H]1[C@@H](OC(C)=O)[C@H](C)O[C@@H](O[C@H]2[C@@H]3C=CO[C@@H](O[C@@H]4O[C@H](CO)[C@@H](O)[C@H](O)[C@H]4O)[C@@H]3[C@@]3(CO)O[C@@H]23)[C@@H]1OC(=O)/C=C/c1ccccc1
inconclusive: Potency (CRL-7250) 2.17 µM [inhibitor, full curve] | Potency (HEK293) 6.11 µM [inhibitor, single point] | Potency (HaCat) 0.769 µM [inhibitor, partial curve, poor fit] | Potency (PA-1) 6.31 µM [cytotoxic, partial curve, poor fit] | Potency (Tov-21-G) 14.1 µM [cytotoxic, single point]
inactive: Potency (CASKI)
active: Potency [1] 6.82 µM

FC(F)(F)c1ccc(Nc2nc3ccc(Oc4ccnc(-c5ncc(C(F)(F)F)[nH]5)c4)cc3[nH]2)cc1
active: Potency (CRL-7250) 13.2 µM and 14.6 µM
inconclusive: Potency [2] 37.2 µM [inhibitor, single point] and 29.1 µM [inhibitor, single point] | Potency (HEK293) 25.9 µM [inhibitor, single point] | Potency (KB-3-1) 33.2 µM [inhibitor, single point] | Potency (NIH3T3) 37.2 µM [inhibitor, single point] and 29.1 µM [inhibitor, single point] | Potency (OV90) 22.4 µM [cytotoxic, partial curve, poor fit] | Potency (PA-1) 28.2 µM [cytotoxic, single point] | Potency (SKOV3) 31.6 µM [cytotoxic, partial curve, poor fit] | Potency (Tov-21-G) 39.8 µM [cytotoxic, single point]

Cn1c(=O)c(F)c(Nc2ccc(I)cc2F)c2c(=O)n(CC(O)CO)cnc21 (centres undefined)
active: Potency (HaCat) 6.51 µM | Potency (Es-2) 3.16 µM
inactive: Potency (Hek293T)
inconclusive: Potency [2] 1.84 µM [inhibitor, partial curve, poor fit] | Potency (CRL-7250) 0.58 µM [inhibitor, full curve] | Potency (HEK293) 18.4 µM [inhibitor, single point] | Potency (CASKI) 8.91 µM [cytotoxic, full curve, poor fit] | Potency (OV90) 0.0562 µM [cytotoxic, full curve, poor fit] | Potency (PA-1) 1.12 µM [cytotoxic, full curve, poor fit] | Potency (SKOV3) 39.8 µM [cytotoxic, single point] | Potency (Tov-21-G) 0.282 µM [cytotoxic, full curve, poor fit] | Potency (Tov112D) 7.94 µM [cytotoxic, full curve, poor fit]

C=C[C@]1(C)C[C@H](O)[C@H]2C(=C)C(=O)O[C@@H]2[C@H]1C(=C)CO
active: Potency [1] 18.3 µM
inactive: Potency (CAOV3) | Potency (Tov112D)
inconclusive: Potency (CRL-7250) 25.9 µM [inhibitor, single point] | Potency (HEK293) 16.4 µM [inhibitor, partial curve] | Potency (HaCat) 5.17 µM [inhibitor, full curve, poor fit]

CC12CCC(OC3OC(CO)C(O)C(OC4OC(CO)C(O)C(O)C4O)C3O)CC1=CCC1C2CCC2(C)/C(=C3/COC(=O)C3)CCC12O (centres undefined)
inconclusive: Potency [1] 9.63 µM [inhibitor, single point] | Potency (CRL-7250) 8.62 µM [inhibitor, single point] | Potency (Tov112D) 12.6 µM [cytotoxic, single point]
inactive: Potency [3] | max response (HEK293) 0.267% | outcome (HaCat) | Potency (SKOV3)

CCCCOc1ccc(S(=O)(=O)n2c(C)nc3ccccc32)cc1
inactive: max response (HaCat) 3.36% | Potency (JEG-3) | Potency (SKOV3)
inconclusive: Potency [1] 3.99 µM [inhibitor, partial curve] | Potency [3] 5.63 µM [inhibitor, partial curve] | Potency (CRL-7250) 11.2 µM [inhibitor, single point] | Potency (HEK293) 14.2 µM [inhibitor, single point]

COc1ccc(/C=C/C(=O)c2ccc(OC)cc2OC)cc1
inconclusive: Potency [2] 16.4 µM [inhibitor, single point] | Potency (CRL-7250) 21.1 µM [inhibitor, single point] | Potency (HEK293) 29.9 µM [inhibitor, single point] | Potency (KB-3-1) 32.6 µM [inhibitor, single point] | Potency (C33A) 35.5 µM [cytotoxic, single point] | Potency (CAOV3) 17.8 µM [cytotoxic, partial curve, poor fit] | Potency (CASKI) 39.8 µM [cytotoxic, single point] | Potency (OV90) 31.6 µM [cytotoxic, single point] | Potency (PA-1) 25.1 µM [cytotoxic, partial curve, poor fit]
inactive: max response (NIH3T3) -18.9%
active: Potency (SKOV3) 2.24 µM

CCCCCCCCCCCCCC(=O)OC(C)C
inconclusive: Potency [2] 20.6 µM [inhibitor, single point]
inactive: Potency [3] | max response (CRL-7250) -4.95% | max response (HEK293) -0.105% | max response (HaCat) -4.71%
